Source: the RNAGym collection of RNA variant scans (doi:10.1093/nar/gkz1192)
Read counts are not given, so values of variants with three or more changes are uncertain.

B1: CPEB3 Ribozyme (parent)
chain: UAACAGGGGGCCACAGCAGAAGCGUUCACGUCGCAGCCCCUGUCAGAUUCUGGUGAAUCUGCGAAUUCUGCUGUAUAUCUC

Variants of: B1
Experiment: self-cleavage, relative activity (ratio to wild type); higher = more cleavage; in vitro, sequencing
Procedure, shortened: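 Libraries of CPEB3 self-cleaving ribozyme mutants came from rounds of error-prone PCR and carried barcodes, which DNA sequencing matched to variants. In vitro transcription used T7 RNA polymerase at 37°C for 5 hours, with a further 15 min in DNase I before EDTA stopped the reaction; the ribozymes cleaved during both steps. The RNA was reverse transcribed with template switching and sequenced on Illumina. Relative activity is the cleaved/total read fraction of a variant divided by that of the unmutated ribozyme, averaged over three batches with at least 5 reads.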
In the case of AAACAGGGGGCCACAGCAGAUGCGUUCACGUCGCAGCCCCUGUCAGAUUCUGGUGAAUCUGCGAAUUCGGCUGUAUAUCUC [U1A A21U U69G], the self-cleavage is reported as 0.1.
Variant AAACAGGGGGCCACGGCAGAAGCGUUCACGUCGCAGCCCCUGUCAGAUUCUGGUGAAUCUGCGAAUCCUGCUGUAUAUCAC [U1A A15G U67C U80A] has a self-cleavage of 0.31.
Variant AAACAGGGGGCCACUGCAAAAGCGUUCACGUCGCAGCCCCGGUCAGAUUCUGGUGAAUCUGCGAAUUCUGCUGUAUAUCCC [U1A A15U G19A U41G U80C] has a self-cleavage of 0.42.
Work on AAACAGGGGGCCACAGCAGAAGCGUUCUCGUCGCAGCCCCUGUCAGAUUCAGGCGAAUCUGCGAAUUCUGCUGUAUAUCUC [U1A A28U U51A U54C] yielded a self-cleavage of 0.91.
For AAACAGGGGGCCUCAGCAGAAGAGCCCACGUCGCAGCCCCUGUCAGAUUCUGGUGAAUCUGCGAAUUCUGCAGUAUAUCUC [U1A A13U C23A U25C U26C U72A], the self-cleavage was 0.24.
AAACAGGGGGCCACAGCGGAAGCGUUCACGUCGCUGCCCCUGUCAGAUUCUGGUGAAUCUGCGAAUUCUGCUGUAUAUUUC [U1A A18G A35U C79U] showed a self-cleavage of 0.42.
Variant AAACAGGGGGCCACUGCAGAAGCGUUCACGUCGCAGCCCCUGUCGGAUUCUGGUGAAUCUGCGAAUUCCGCGGUAUAUCUC [U1A A15U A45G U69C U72G] has a self-cleavage of 0.14.
Variant AAACAGGGGGCCACAGCAGAGGCGUUCACGUCGCAGCCCCUGUCAGAUUCUGGUGAAUCUGCGGAUCCCGCUGUAUGUCUC [U1A A21G A64G U67C U69C A77G] has a self-cleavage of 0.16.
In the case of AAACAGGGGGCCACAGCUGAGGCGUUCACGUCGCAGCCCCUGUCAGAUUCUGGUGAAUCCGCGAAUUCUGCUGUAUAUCUC [U1A A18U A21G U60C], the self-cleavage is reported as 0.28.
Work on AAACAGGGGGCCACAGCAGUAGCGUUCACGUCGCAGCCCCUAUCAGAUUCUGGUGAAUCUGCGAAUUCUGCUGUAUAUCUC [U1A A20U G42A] yielded a self-cleavage of 0.32.
AAACAGGGGGCCACGGCAGAAGCGUUCACGUCGCAGCCCCUGUCAGAUUCUGGUGAAUCUGCGAAUUAUGCUGUAUAUCUC [U1A A15G C68A] gave a self-cleavage of 0.24.
With AAACAGGGGGCCACAGCAGAGGCGGUCACGUCGCAGCCCCUGUCAGAUUCUGGUGAAUCUGCGAAUUCUGCUGUGUACCUC [U1A A21G U25G A75G U78C] the self-cleavage was 0.09.
For AAACAGGGGGCCACAGCGGGAGCGCUCACGUCGCAGCCCCUGUCAGAUUCUGGUGAAUCCGCGAAUACUGCUGUAUAUCUC [U1A A18G A20G U25C U60C U67A], the self-cleavage was 0.12.
Variant AAACAGGGGGCCACGGCAGAAGCGUUCACGUCGCUGCCCCUGUCAGAUUCUGGUGAAUCUGCGAAUUCUGCUGUAAAUCCC [U1A A15G A35U U76A U80C] has a self-cleavage of 0.73.
AAACAGGGGGCCACAGCGGAAGCGUUCACGCCGCAGCCCCUGUCAGAUUCUGGUGAAUCAGCGAAUCCUGCUGUAUAUCUC [U1A A18G U31C U60A U67C] gave a self-cleavage of 0.21.
With AAACAGGGGGCCUCAGCAGAAGCGUUCACGUCGCAGCCCCCGUCAGAUUCUGGUGAACCUGCGAAUUCUGCUGUAUAUCUC [U1A A13U U41C U58C] the self-cleavage was 0.37.
In the case of AAACAGGGGGCCACUGCAGAAGCGUUCACGUCGCAGCCCCUGUCAGAUUCUGGUGUAUCUGCGAAUUCUGCUGUAUAUCUC [U1A A15U A56U], the self-cleavage is reported as 0.4.
For AAACAGGGGGCCUCAGCAGAAGCGUUCACGUCGCAGCCCCCGUCUGAUUCUGGUGGAUCCGUGAAUUCUGCUGUAUAUCUC [U1A A13U U41C A45U A56G U60C C62U], the self-cleavage was 0.08.
AAACAGGGGGCCACAGCAGGAGCGCUCACGUCGCUGCCCCUGUCAGAUUCUGGUGAAUCUGCGAAUUCUGCUGUAUAUCUC [U1A A20G U25C A35U] gave a self-cleavage of 0.07.
Variant AAACAGGGGGCCACUGCAGAAGCGUCCACGUCGCAGCCCCUGCCAGAUUCUGGUGAAUCUGUGAAUUCCGCUGUAUAUCUC [U1A A15U U26C U43C C62U U69C] has a self-cleavage of 0.16.
For AAACAGGGGGCCACAGCUGAAGCGUUCACGUAGCAGCCCCUGUCAGAUUCUGGUGAACCAGCGAAUUCUGCUGCAUAUCUC [U1A A18U C32A U58C U60A U74C], the self-cleavage was 0.07.
For AAACAGGGGGCCACAGCAGUAGCGUUCACGUCGCAGCCCCUGUCAGAUUCUGGUGAAUCUGCGAAUACUGCUGUAUAUCUC [U1A A20U U67A], the self-cleavage was 1.
In the case of AAACAGGGGGCCACAGCAGAAGCGUUCACGUCGCCGCCUCUGUCAGAUUCUGGCGAAUCUGCGAGUUCUCCUGUAUAUCUC [U1A A35C C39U U54C A65G G70C], the self-cleavage is reported as 0.15.
Variant AAACAGGGGGCCACAGCGGAAGAGUUCACGUCGCAGCCCCUGUCAGAUUCUGGUGAAUCUGCGAAUUCCGCCGUAUAUCUC [U1A A18G C23A U69C U72C] has a self-cleavage of 0.08.
Work on AAACAGGGGGCCACAGCAGGAGCGAUCACGUCGCAGCCCCUGCCAGAUUCUGGUGAAUCUGCGAAUGCUGCUGUAUACCUC [U1A A20G U25A U43C U67G U78C] yielded a self-cleavage of 0.04.
With AAACAGGGGGCCACGGCAGAAGCGUUCACGUCGCAGCCCCUGUCAGGUUCAGGUGAAUCUGCGAAUUCUGCUGUAUAUCUC [U1A A15G A47G U51A] the self-cleavage was 0.95.
Work on AAACAGGGGGCCACAGCAGACGCGUUCACGUCGCAGCCCCUGUCAGAUUCUGUUGAAUCUGCGAGUUCUGCUGUAUAUCUC [U1A A21C G53U A65G] yielded a self-cleavage of 0.2.
In the case of AAACAGGGGGCCACAGCAGAGGCGUUCACGUCGCAGCCCCUGUCGGAUUCUGGUGAAUCUGCGAAUUCUGCUGUAUAUCUC [U1A A21G A45G], the self-cleavage is reported as 0.61.
Variant AAACAGGGGGCCUCAGCUGAAGCGUUCACGUCGCAGCCCCUGCCAGAUUCUGGUGAAUCUGCGAAUUCCGCUGUAUAUCUC [U1A A13U A18U U43C U69C] has a self-cleavage of 0.2.
For AAACAGGGGGCCACAGCAGAGGCGUUCACGUCGCAGCCCCUGUCAGAUUCUGGUGAAUCUGCGAAUUCUGCCGAAUAUCUC [U1A A21G U72C U74A], the self-cleavage was 0.85.
In the case of AAACAGGGGGCCACAGCGGAAGCGUUCACGUCGCAGCCCCUGUCAGAUUCUGGUGAACCUGCGAAUUAUGCCGUAAAUCUC [U1A A18G U58C C68A U72C U76A], the self-cleavage is reported as 0.15.
For AAACAGGGGGCCACGGCAGGAGCGUCCACGUCGUAGCCCCUGUCAGAAUCUGGUGAAUCUGCGAAUUCCGCUGUAUAUCUC [U1A A15G A20G U26C C34U U48A U69C], the self-cleavage was 0.12.
Variant AAACAGGGGGCCACAGCAGAGGCGUUCACGUCGCAGCCCCUGUCAGAUACUGGUGAAUAUGCGAAUCCUGCUGUAUAUCUC [U1A A21G U49A C59A U67C] has a self-cleavage of 0.11.
AAACAGGGGGCCACAGCAGAGGCGUUCACGUCGCAGCCCCUGUCAGAUUCUGGUGAAUCUGCGAAUUCUGCUAUAUAACAC [U1A A21G G73A U78A U80A] showed a self-cleavage of 0.85.
